Measured values reported in article PMC12136788.
This is one part of the list.

B1: chr11:50196439:50196440:+_ENSMUSG00000007850_ENSMUST00000069304|mus_mus|motif|central (ssRNA)
RNA: GGGAGUUCUACAGUCCGACGAUCCCCAUAUCUGUGGUCAGACAUUCCUGAAAAACAAUAAUUGAGGUCUCUUCCAAAUCGGUCUGAACCAAAUCCAUAGCCAUCAUUAUAGCCAUUAUAAUCAUCAUAGCCUCCAUAGCCUCCCAACAGAGGAUUGAGCAUCA
B2: chr1:244855233:244855234:+_ENSG00000121644_ENST00000302550|hu_hu|motif|central (ssRNA)
RNA: GGGAGUUCUACAGUCCGACGAUCCAUUAAAUGAUAAGCAUUGCCUUUGUAUUCUUUUCCCAGUUCUUCUACAAUUUUUUCGGUAUCAUCUUCUAGGAAGUCCGUGCUCCCUAAAACAACAGCUUCUUUAAAUUUAAAUGUUUCCAACAGAGGAUUGAGCAUCA
B3: 156572074_156572194_565_ncRNA_ENSMUSG00000061689_ENSMUST00000127944|mouse|control|control (ssRNA)
RNA: GGGAGUUCUACAGUCCGACGAUCUGUACAGGAGCUUGCUGGCUGAGUGUAACUACAUUCACUGGGACAACCCACUGGAGGAUGUCCAGCUAUGGACCUGCAGCAUGGGUGCUGGACACACGAGUGUGGCUGCAGGAGAAUUUGCAACAGAGGAUUGAGCAUCA
B4: chr8:35203877:35203878:-_ENSMUSG00000031513_ENSMUST00000033910|mus_hu|FALSE|FALSE (ssRNA)
RNA: GGGAGUUCUACAGUCCGACGAUCGGAAGGGCACAUCCAAGCAUCAAAAACAUCAGUCCGAUUGCUCCUCCAAAGGACAAACUAAUCAAAGCUUUGAUGCCUGCCAUGGCGGUGACGUCGCUCCUGGCUCCACGACCCGAGGCGCAACAGAGGAUUGAGCAUCA
B5: 219525671_219525791_158_CDS_ENSG00000074582_ENST00000359273|human|control|control (ssRNA)
RNA: GGGAGUUCUACAGUCCGACGAUCUGUGCCCACACCCACCAGCCCAAAUCCAGCCCCAAAGUAGGGAUUGUCCUUCAGAGCCAGAAUAAAGUCUGAAAGUGGCAUCUUGAAAGGGAAACACCAAACCUUACAGGCCCUGGGGUGCAACAGAGGAUUGAGCAUCA
B6: chr12:39752152:39752153:-_ENSG00000139116_ENST00000544797|hu_hu|motif|central (ssRNA)
RNA: GGGAGUUCUACAGUCCGACGAUCGUAUUUCAGGGUGUUUAACGUUUCCAUAAAGUCUCUGUCUGAAGGGCUGACACAUGCGGUCAUGAUUGUUUGGCUAUUACCCCCGAGGGAAUCCUGUAGUAGUCUUGUUAGCUUGGAAUCCAACAGAGGAUUGAGCAUCA
B7: chr4:33586012:33586013:+_ENSMUSG00000028274_ENSMUST00000108153|mus_mus|FALSE|FALSE (ssRNA)
RNA: GGGAGUUCUACAGUCCGACGAUCCGAGAUGCUAUUGCACACAGCCAUGGCUGUGUUGUAGGCAUUUGGGAAACUUUUGUCUAUCCUCUGUCUCAUGAAGACCCAGCUAUUGUUCUCAAAUUUGCAUUCUAUAAUUUUGUUGUCCAACAGAGGAUUGAGCAUCA
B8: chr6:114281168:114281169:-_ENSG00000196591_ENST00000368632|hu_hu|hu_hu_hu_mus_True|1_108 (ssRNA)
RNA: GGGAGUUCUACAGUCCGACGAUCUUCCAUUUUUCUGUAUAAACCAUAAUUUAGCAGCAAGUUAUGAGUCAUCCGGAUUCUAUGAGGCUUCAUGGGAUGACCCUGGCCAUAAUAAUAAUUGCCAAUAUCACCAUCAUACUAGAACAACAGAGGAUUGAGCAUCA
B9: 5257761_5264598_1355_CDS_ENSG00000029725_ENST00000262477|human|control|control (ssRNA)
RNA: GGGAGUUCUACAGUCCGACGAUCCAUGUCAUUGUCCGAUUUACUGAAAGGAUCUCCAGAUGGCAACAGCAAGCCUGCAUCUAAGGAAUGAACUGAGCCACGGGUGCUGUCUAAAUGCUCCUCUUCAUUUGAUAACUGGGCUGACAACAGAGGAUUGAGCAUCA
B10: 54679947_54680067_123_3pUTR_ENSMUSG00000020267_ENSMUST00000020504|mouse|control|control (ssRNA)
RNA: GGGAGUUCUACAGUCCGACGAUCCUUUGCGGAUGAUCUUGCCGAAGAUCGUGUCGCCGCCGGGCUGGGCCACUUGAGCCUUGGCAAUCUCGUCAGCCAUCGCGGCCGCUCACUGUCCUUCCCGCGCCGCGGCCACAGUGGGGACAACAGAGGAUUGAGCAUCA
B11: chr14:31074762:31074763:+_ENSG00000092140_ENST00000206595|hu_hu|motif|central (ssRNA)
RNA: GGGAGUUCUACAGUCCGACGAUCCCAGAUAUUGGCUUUGUUGAUAUACAAUCUUUUAGUUUUUUUUUUAAUUUGGAAUCCGGACUCGGUUAAUAGUGUUGAUACAUUUCUUCUAAAUUUGCUGCCUUGCCUCAGUAGAUCUUUCAACAGAGGAUUGAGCAUCA
B12: chr4:148551591:148551592:-_ENSMUSG00000063077_ENSMUST00000060537|mus_hu|mus_mus_mus_hu_False|68_78 (ssRNA)
RNA: GGGAGUUCUACAGUCCGACGAUCACCUGACAAAAUUAAAUAUCCCUGUAAAUUAGACAAGAAGCAGCAGGUAACAAAGUCUUUGCUUUGGAAUAUGUGCCAGGAAAAGUCAUCUUGUUUUUAGAUCUCAAGAGACAGUUCACACAACAGAGGAUUGAGCAUCA
B13: 162081223_162087567_785_CDS_ENSG00000136560_ENST00000392749|human|control|control (ssRNA)
RNA: GGGAGUUCUACAGUCCGACGAUCUAUAUCAUCUUUAGCCUGAGGCUUAAACAGCGCUUCUUGUUUAUCUGUUUUAUCCGUACACUGUAUAGGCACAGAGCACUGUGUUUCAGUUGCAGUGUCUGGUAUAUUAAGUUUGCUUAACAACAGAGGAUUGAGCAUCA
B14: 47486407_47486699_519_3pUTR_ENSG00000167085_ENST00000300408|human|control|control (ssRNA)
RNA: GGGAGUUCUACAGUCCGACGAUCGACACGUCAUCCAGGAUGAGCCCAAAGGUGGCGGCUCGCUCUGUAAGGUCGUCGCUCACCUGCCUGGAGACCAGCUCUCUCUGGGUGAUUAGUUCUCCAGCAUCAAAGCGAGCCACCACUCAACAGAGGAUUGAGCAUCA

target: T1, UNK ZnF1-3 (human, UniProt Q9C0B0 31-174); test: nsRBNS (natural sequence RNA bind-n-seq); RBNS binding buffer (assumed for nsRBNS): 25 mM Tris pH 7.5, 150 mM KCl, 3 mM MgCl2, 0.01% Triton X-100, 500 ug/ml BSA, 20 U/ml SUPERase-In, 4 C; UNK is unkempt and MSI1 is Musashi-1; names of the RNAs are library labels; protein concentration not given here; high values mean tight binding
T1 sequence: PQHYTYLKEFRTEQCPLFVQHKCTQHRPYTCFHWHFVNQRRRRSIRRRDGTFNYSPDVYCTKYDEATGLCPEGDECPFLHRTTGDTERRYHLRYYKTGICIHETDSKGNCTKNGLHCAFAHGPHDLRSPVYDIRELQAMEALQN

Binder | binding signal [enrichment R]
B1 | 1.31
B2 | 0.665
B3 | 0.449
B4 | 2.82
B5 | 1.32
B6 | 0.641
B7 | 0.518
B8 | 0.896
B9 | 1.2
B10 | 0.437
B11 | 0.882
B12 | 1.34
B13 | 0.37
B14 | 0.373
